Laboratory results published in article PMC12040169 (PLOS Biology, 2025).
Some of the results follow.

These molecules were tested on T1, C. trachomatis L2/434/Bu expressing GFP (CTL2-GFP). Conditions: total inclusion area; 28.5 h, 10 µM; inhibitor.
T1 construct: L2/434/Bu GFP intracellular growth in HeLa cells
Parameters: species or system HeLa; C. trachomatis total inclusion area by high-content imaging, normalised to DMSO
In short: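 Imaging read-out: GFP inclusions and Hoechst nuclei captured by high-content imaging after fixation. Inclusion area/number = chlamydial growth; nuclei count = host cell viability. MIC calculated per earlier method.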

Structure (SMILES) | % of control remaining
CS(=O)(=O)c1sc(C(=O)NC(=S)Nc2cccc(C(F)(F)F)c2)c2c1C=CCC2 [CBK005654] | 97.5258
c1ccc(-c2nnc(C3CCNCC3)[nH]2)nc1 [CBK288629G] | 120.272
O=C(NC1CCCC1)c1ccc(-c2cnc3[nH]c(=O)n(C4CCCCC4)c3n2)cc1 [CBK064582] | 87.3802
CCOc1cc(/C=N/Nc2nncn2N)cc(I)c1O [CBK027879] | 97.6893
C[C@@H](c1ccccc1)n1c(=O)[nH]c2ncc(-c3cccc4cccnc34)nc21 [CBK064199] | 139.254
Cc1ccccc1C(=O)NCC(=O)Nc1ccc(Br)c2ccccc12 [CBK091343] | 78.4003
Cc1ccc(N(CC(=O)Nc2ccc(S(=O)(=O)N3CCCCC3)cc2)S(C)(=O)=O)c(C)c1 [CBK263981] | 88.4579
O=C(CN1CCOCC1)N1CCN(C(=O)c2ccco2)CC1 [CBK144478] | 90.8546
Nc1nc2cccnc2cc1-c1ccc2c(c1)OCCCO2 [CBK081201] | 92.1518
O=C(COc1ccc([N+](=O)[O-])cc1)N/N=C/c1cc(Br)cc(Br)c1O [CBK262094] | 78.8236
Cc1ccc2c(c1)nc(CNC(=O)NCc1ccnc(C)n1)n2C [CBK304292] | 71.1679
Cc1ccccc1-n1ncc2c1NC(=O)N1CCCN=C21 [CBK284409] | 70.5842
CC(C)(C)c1cn(C[C@H]2CC3CCN2C[C@@H]3C(=O)NC2CCCCC2)nn1 (some centres unmarked) [CBK289085] | 107.927
CC1CCc2c(sc(NC(=O)c3cc(-c4ccccn4)nc4c(Cl)cccc34)c2C(N)=O)C1 (centres unmarked) [CBK267744] | 133.794
COCCn1c(CO)nnc1[C@H]1C[C@@H](NC(=O)c2ccc(F)cc2C)C1 [CBK306856] | 99.5664
CCCC(=O)c1ccc(S(=O)(=O)N2CCN(Cc3ccc(F)c(C(F)(F)F)c3)CC2)cc1 [CBK063162] | 100.723
CCCN(C)Cc1ccc(-c2cn(CC(=O)NCc3ccc(C(F)(F)F)cc3)nn2)cc1 [CBK164719] | 85.9935
CC(C)(C)S(=O)(=O)c1ccc2nc3c(n2c1)CCCC3 [CBK006753] | 57.4271
O=C(COc1ccc(S(=O)(=O)N2CCOCC2)cc1)N1CCc2ccccc2C1 [CBK268350] | 99.2996
Nc1ncc(-c2ccc(O)cc2)nc1N1CCC[C@@H]1CO [CBK063669] | 117.787
NC(=O)CCn1c(=S)n(CCC(N)=O)c2ccccc21 [CBK262301] | 102.062
O=C1NCC2(C/C=C/CCOc3ccccc31)CCN(C(=O)CCN1CCCC1)CC2 [CBK292020] | 58.8108
Cc1[nH]nc(-c2ccc(OCc3cnn(-c4ccccc4)c3)cc2O)c1Oc1ccc(Cl)cc1 [CBK264939] | 105.04
COC(=O)c1ccc2c(=O)n(CC(C)O)c(SC)nc2c1 (centres unmarked) [CBK305018] | 59.4682
Cc1cc2c(cc3c(=O)n(CC(=O)N4CCCCC4)nc(C)n32)o1 [CBK283630] | 104.985

Structure (SMILES) | % of control remaining
O=C(NCc1ccc(Cl)c(Cl)c1)c1cnoc1-c1ccccc1Cl [CBK154942] | 87.6089
N#CCc1ccc(Nc2cc(-c3cccc(N)c3)ncn2)cc1 [CBK091187] | 105.305
O=C(O)c1ccccc1-n1c(=O)c2cc3c(=O)n(-c4ccccc4C(=O)O)c(=O)c3cc2c1=O [CBK261097] | 108.503
CC(=O)N1CCc2sccc2C1c1ccc(NC(=O)c2ccccc2F)cc1 (centres unmarked) [CBK286433] | 81.9344
COc1cccc(NC(=O)N2CCN3C(=O)[C@H](Cc4ccc(O)cc4)NC(=O)[C@@H]3C2)c1 [CBK289618] | 110.065
Cc1noc(C2=CC=CN3C2=NNC32CCNCC2)n1 [CBK288058] | 108.926
O=C(CCSc1ccccc1)Nc1ccc(Br)cc1F [CBK266825] | 100.824
Cn1cnc([N+](=O)[O-])c1Oc1cccc(C(F)(F)F)c1 [CBK002790] | 47.4526
O=C(O)c1cccc2c1C(=O)N(Cc1ccc(F)cc1)C2 [CBK291183] | 117.985
O=C1N[C@@]2(CC3CCC2CC3C(=O)NC2CC2)Nc2ccccc21 (some centres unmarked) [CBK284454] | 98.5606
O=C(c1ccncc1)N1CCCC1(CO)Cc1ccccc1 (centres unmarked) [CBK288620] | 69.5753
COc1ccc(N2C(N)=C(C#N)C(c3cccc(OC(C)C)c3)C3=C2CCS3(=O)=O)cc1 (centres unmarked) [CBK293992] | 120.643
CC(Cc1nc(-c2ccnn2C)cs1)n1cc(Cl)cn1 (centres unmarked) [CBK304152] | 29.4505
CC(=O)c1ccc(CN2CCCN(S(=O)(=O)c3ccc(C(F)(F)F)cc3Cl)CC2)cc1 [CBK063106] | 65.072
O=C(O)CS(=O)(=O)c1ccc(Cl)cc1 [CBK262036G] | 102.821
c1ccc(OCCNc2nccnc2N2CCNCC2)cc1 [CBK013527] | 80.419
Cc1cc(C2CCCCCN2C(=O)c2c(C)noc2C)no1 (centres unmarked) [CBK284845] | 99.6756
CN(C)CC(C)(C)CNC(=O)c1cnc2cc(C(F)(F)F)ccc2c1O [CBK107427] | 66.5799
O=C(O)c1ccc2[nH]c(=O)[nH]c2c1 [CBK032631] | 51.7227
Cn1nc(C2CCN(Cc3ccccc3)CC2)c2cccnc21 [CBK285095] | 97.3226
OC1CCn2c1nc1cc(Cl)ccc12 (centres unmarked) [CBK113623] | 83.672
COc1cccc(C(=O)Nc2nc(-c3ccc(C(C)C)cc3)cs2)c1 [CBK101110] | 93.9931
Cc1ccc2nc(CN3CCC(CNc4ccccn4)C3)cc(=O)n2c1 (centres unmarked) [CBK306340] | 24.6775
COC(=O)c1ccc(CNc2nc(OC)cc(OC)n2)cc1 [CBK093391] | 92.5318
CC1CCN(C(=O)[C@@H]2CN(C)C[C@]23CCc2ccccc2C3=O)CC1 [CBK284589] | 106.744
